Results reported in PubChem BioAssay AID686978 (National Center for Advancing Translational Sciences (NCATS), 2013).
In all, about 420,000 compounds went through this assay and about 64,000 (15%) were called active. Inconclusive means that the source gave no clear call. Such entries were picked first, then a sample of the others. The call rests on the fitted dose curve; in most records, active means well fitted inhibition curve with a large enough effect; inconclusive means small, poorly fitted or top-dose-only effect; inactive means flat fitted curve, though single readings scatter. No potency is given beside an inconclusive call; the fits are too rough.

Assay: qHTS for Inhibitors of human tyrosyl-DNA phosphodiesterase 1 (TDP1): qHTS in cells in absence of CPT; further: nearly all actives have a fitted effect of over 55% in size
Conditions: DT40 Tdp1-/- hTDP1 cells, no CPT, ATP luminescence, 48 h; activity change, negative = growth inhibition: at 46.2 µM (top of the series)
Method in brief: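 DT40 Tdp1-/-;hTDP1 cells, no CPT (DMSO vehicle only), 400 cells/well; compounds pin-transferred; ≥48 hr, 37 °C; CellTiter-Glo 30 min RT dark, luminescence read.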
On the % scale 0 is the no-effect control and ±100 the full control effect; potency means the concentration at half of the fitted maximal effect; tags describe the fitted curve by direction and shape.

| Compound | Potency | activity change, negative = growth inhibition |
| --- | --- | --- |
| CCCCC(=O)Nc1ccc(C(=O)OCc2cc(=O)n3ccsc3n2)cc1 | active: 16.4 µM | – |
| O=C(NCCc1c[nH]c2ccccc12)c1cc(Cl)c2c(c1)OCO2 | inconclusive [inhibitor, partial curve] | – |
| CNc1ncnc2c1ncn2[C@H]1CN(Cc2ccc3c(c2)OCO3)C[C@@H](CO)O1 | inconclusive [inhibitor, single point] | – |
| Cc1cccc(-n2c(N)c(C(=O)N3CCN(C)CC3)sc2=S)c1 | inconclusive [inhibitor, single point] | – |
| Oc1ccc(Nc2nc(Cl)nc(NCc3ccco3)n2)cc1 | inconclusive [inhibitor, single point] | – |
| O=c1ccc(-c2ccccc2)nn1Cc1ccccc1 | inconclusive [inhibitor, single point] | – |
| COc1ccc(NC(=O)c2ccc(-c3c(C)noc3C)c3ccoc23)cc1 | inconclusive [inhibitor, single point] | – |
| CC(CC1CC(C)(C)OC1=O)C(=O)Nc1ccc([N+](=O)[O-])cc1 (stereo not drawn) | inconclusive [inhibitor, partial curve, poor fit] | – |
| CCn1c(=O)c(C(=O)NNC(=O)c2ccccc2)c(O)c2ccccc21 | inconclusive [inhibitor, single point] | – |
| Cc1ccc(-c2[nH]ncc2C(=O)c2cccc(F)c2)c(O)c1 | active: 14.6 µM | – |
| COc1cccc(CN2CCN(Cc3ccc(C)o3)CC2CCO)c1 (stereo not drawn) | – | inactive: -23.9% |
| COc1ccc(Cn2c(SCc3ccc(C(=O)NCc4cccs4)cc3)nc3ccncc32)cc1 | inconclusive [inhibitor, single point] | – |
| Cc1ccc(C)c(NC(=O)Cn2c(=O)n(CC(=O)NCCc3ccccc3)c(=O)c3ccccc32)c1 | inconclusive [inhibitor, partial curve] | – |
| O=C(CCCn1c(=O)[nH]c2ccsc2c1=O)N1CCN(c2ccc(Cl)cc2)CC1 | inconclusive [inhibitor, single point] | – |
| CCOC(=O)c1sc2cccc(F)c2c1S(=O)(=O)Nc1ccccc1F | – | inactive: 6.49% |
| CCOc1ccc(NC(=O)CC(c2ccccc2)c2ccc(F)cc2)cc1 (stereo not drawn) | active: 14.6 µM | – |
| O=S(=O)(c1ccccc1Cl)N1CCC(O)(c2cccnc2)CC1 | inconclusive [inhibitor, single point] | – |
| O=C(CSc1nnc(-c2ccc(Cl)cc2)c(-c2ccc(Cl)cc2)n1)NC1CCCC1 | inconclusive [inhibitor, partial curve, poor fit] | – |
